# Test results reported in PubChem BioAssay AID624417 (National Center for Advancing Translational Sciences (NCATS), 2012).
# “And” between values parts separate entries of the source, which are not always exact repeats. Equal values may be shown once. Among all 410,000 compounds or so, about 6,400 (1.6%) were called active. The inconclusive results got no clear call from the source; some entries with a clear call stand among them for comparison. The call rests on the fitted dose curve; in most records, active means well fitted inhibition curve with a large enough effect; inconclusive means small, poorly fitted or top-dose-only effect; inactive means no such curve, though single readings can be large or run the other way. Potencies of inconclusive entries are doubtful fits and often do not repeat.
# Target: Glucagon-like peptide 1 receptor (Homo sapiens) (UniProt P43220)
# UniProt P43220, sequence (P43220 whole entry, looked up): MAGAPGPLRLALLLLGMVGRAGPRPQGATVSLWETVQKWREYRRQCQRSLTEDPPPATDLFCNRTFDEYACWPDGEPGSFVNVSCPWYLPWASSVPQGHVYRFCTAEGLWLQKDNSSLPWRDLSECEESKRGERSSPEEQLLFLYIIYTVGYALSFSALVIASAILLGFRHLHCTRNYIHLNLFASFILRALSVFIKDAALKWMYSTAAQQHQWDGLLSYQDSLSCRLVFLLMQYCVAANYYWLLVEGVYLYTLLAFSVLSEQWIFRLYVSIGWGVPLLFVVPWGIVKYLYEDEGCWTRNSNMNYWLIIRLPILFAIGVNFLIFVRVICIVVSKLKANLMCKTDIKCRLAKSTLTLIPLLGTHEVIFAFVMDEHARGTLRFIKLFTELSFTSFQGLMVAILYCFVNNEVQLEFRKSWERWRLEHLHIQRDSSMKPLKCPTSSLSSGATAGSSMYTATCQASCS
# Assay: qHTS of GLP-1 Receptor Inverse Agonists (Inhibition Mode); further: nearly all actives have a fitted effect of over 55% in size
# Details: HEK293 GLP-1R CRE-luciferase, luminescence, 24 h, GLP-1R form is constitutively active; activity change, negative = inhibition: at 38.3 µM (top of the series) unless noted
# In short: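 Using stably transfected HEK293 (constitutively active GLP-1R, cAMP-luciferase reporter), compounds were incubated 24 hr and luciferase measured by luminescence.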
# On the % scale 0 is the no-effect control and ±100 the full control effect; potency means the concentration at half of the fitted maximal effect; tags describe the fitted curve by direction and shape.
Compound,"activity change, negative = inhibition",Potency
COc1ccccc1CNC(=O)c1ccccc1C(=O)NC(CC(C)C)C(=O)NCc1ccccc1OC (configuration not stated),inactive: -1.6%,
C=CCc1cc(C=O)cc(OCC)c1OCc1ccc(Cl)cc1,,"inconclusive: 10 µM [inhibitor, partial curve]"
Cc1c(CN(C)Cc2cn(C)nc2-c2ccccc2F)[nH]c2ccccc12,,"inconclusive: 31.6 µM [inhibitor, single point]"
CCc1ccc2occ(CC(=O)Nc3ccc(C)c(C)c3)c2c1,,"inconclusive: 11.2 µM [inhibitor, partial curve, poor fit]"
Clc1ccc(SCc2cn3ccsc3n2)cc1,,"inconclusive: 28.2 µM [inhibitor, single point]"
Cc1sc2ncn(CC(=O)N3CCN(c4ccccc4)CC3)c(=O)c2c1S(=O)(=O)N1CCC(C)CC1,inactive: -26.3%,
O=C(Nc1ccccc1Sc1ccccc1)c1ccccc1F,,"inconclusive: 10 µM [inhibitor, partial curve, poor fit]"
Cc1ccc(-c2ccc(C(=O)NCc3ccc(Cl)cc3)o2)c2ccccc12,,"inconclusive: 10 µM [inhibitor, single point]"
COc1ccc2nc(SCCOC(=O)Nc3ccc(Cl)cc3)nc(C)c2c1,,"inconclusive: 11.2 µM [inhibitor, single point]"
CSc1ccc(C2C(C#N)=C(N)Oc3c2ccc(=O)c2c(C)oc(C)c32)cc1 (configuration not stated),inactive: 58.2%,
COc1ccc(S(=O)(=O)Nc2cc(C)c(O)cc2C(C)C)cc1,,"inconclusive: 10 µM [inhibitor, partial curve]"
O=C(NCCCn1ccnc1)C(=O)NCC(c1ccco1)N1CCN(c2ccc(F)cc2)CC1 (configuration not stated),,"inconclusive: 10 µM [inhibitor, single point]"
CN1C(=O)c2ccccc2Cc2c(NCc3ccccc3)ncnc21,,"inconclusive: 12.6 µM [inhibitor, partial curve, poor fit]"
COc1ccc(/C=N/NC(=O)c2cc3c(OC)ccc(OC)c3[nH]2)cc1O,,"inconclusive: 3.16 µM [inhibitor, partial curve, poor fit]"
CC1=C(c2ccc(C(C)C)cc2)S(=O)(=O)NC1=NCc1ccc(Cl)cc1,inactive: -4.19%,
O=C(CCNS(=O)(=O)c1ccccc1F)N1CCN(C(c2ccccc2)c2ccccc2)CC1,,"inconclusive: 10 µM [inhibitor, partial curve, poor fit]"
Cc1cc(OCC(=O)N2CCCC2)cc(C)c1Cl,,"inconclusive: 12.6 µM [inhibitor, single point]"
N#Cc1cccc(NC(=O)c2cc(C3CCCCN3C(=O)CCCc3ccccc3)on2)c1 (configuration not stated),,"inconclusive: 11.2 µM [inhibitor, partial curve, poor fit]"
COCc1oc2ccc(NS(=O)(=O)c3ccc(C)cc3)cc2c1C(=O)OC,,"inconclusive: 0.794 µM [inhibitor, full curve, poor fit]"
COC(=O)c1ccccc1NC(=O)CSc1nc(C)cc(C)n1,inactive: 16%,
O=C(CCNS(=O)(=O)c1ccc2c(c1)CCN2C(=O)C1CC1)N1CCN(c2cccc(C(F)(F)F)c2)CC1,,"inconclusive: 31.6 µM [inhibitor, single point]"

Compound,"activity change, negative = inhibition",Potency
CC(C)(C)C1CCc2onc(C(=O)NC3CCCC3)c2C1 (configuration not stated),,"inconclusive: 28.2 µM [inhibitor, single point]"
COc1ccc(-c2cc3ccc(O)c(CN4CCCCC4C)c3oc2=O)cc1OC (configuration not stated),inactive: 2.25%,
CC(C)C[C@H]1CNC(=S)N1C[C@H]1CCCN1C[C@H](CC(C)C)N1C[C@H](Cc2ccc(O)cc2)N(CCc2ccccc2)C1=S,,"inconclusive: 28.2 µM [inhibitor, single point]"
COc1cc(S(=O)(=O)NC2CCCCC2)ccc1Cl,,"inconclusive: 20 µM [inhibitor, single point]"
O=C(c1ccccc1Cl)N1N=C(c2cccs2)CC1c1cccc(O)c1 (configuration not stated),,"inconclusive: 7.94 µM [inhibitor, partial curve, poor fit]"
O=C(OCC(=O)N1CCCc2ccccc21)c1cc(S(=O)(=O)N2CCOCC2)ccc1Cl,,"inconclusive: 12.6 µM [inhibitor, single point]"
CCOC(=O)C1CCCN(C(=O)c2ccc3nc(-c4cccc(OC)c4)oc3c2)C1 (configuration not stated),,"inconclusive: 6.31 µM [inhibitor, full curve, poor fit]"
COc1ccc(-c2sc3ccccc3c2C#CCO)cc1,,"inconclusive: 17.8 µM [inhibitor, single point]"
COc1ccccc1/C=C\C(=O)NCC(=O)N/N=C(/C)c1cccc([N+](=O)[O-])c1,,"inconclusive: 11.2 µM [inhibitor, partial curve, poor fit]"
CCOc1ccc(S(=O)(=O)N2CCN(C(=O)c3cc4ccccc4o3)CC2)cc1,,"inconclusive: 28.2 µM [inhibitor, single point]"
COc1cccc(CN2CCC(Oc3ccc(C(=O)N4CCCCC4)cc3)CC2)c1,,"inconclusive: 11.2 µM [inhibitor, partial curve, poor fit]"
Cc1c(SCCO)c(=O)[nH]c2cc3c(cc12)OCO3,inactive: 19.6%,
CCN(CC)S(=O)(=O)c1cccc(NC(=O)CN2C(=O)NC3(CCOc4ccccc43)C2=O)c1 (configuration not stated),,"inconclusive: 11.2 µM [inhibitor, single point]"
CCc1noc(C)c1C(=O)NCCc1ccc(Cl)cc1,,"inconclusive: 11.2 µM [inhibitor, single point]"
OC(CNC1CCCC1)COc1ccc(Cl)cc1 (configuration not stated),,"inconclusive: 17.8 µM [inhibitor, partial curve, poor fit]"
COC(=O)c1ccc(-n2c(/C=C/c3cc(OC)c(OC)c(OC)c3)nc3cc(Cl)ccc3c2=O)cc1,inactive: -24.3%,
CCN(C(=O)Cn1c(=O)n(Cc2ccc3c(c2)OCO3)c(=O)c2ccc(C(=O)NC3CCCCC3)cc21)c1cccc(C)c1,inactive: -21.9%,
COc1ccc2cc(Br)ccc2c1CC(=O)N1CCCC1,,"inconclusive: 28.2 µM [inhibitor, single point]"
COc1ccc(OC)c(S(=O)(=O)N2CCN(Cc3nc4ccc(C)cc4o3)CC2)c1,inactive: 4.37%,
CN1CCN(Cc2nc3ccccc3c(=O)n2Cc2nc(-c3ccc4ccccc4c3)cs2)CC1,,"inconclusive: 8.91 µM [inhibitor, partial curve, poor fit] and inconclusive: 28.2 µM [inhibitor, single point]"
CCc1ccc(OCC(=O)N2CCN(c3ccccn3)CC2)c(Br)c1,,"inconclusive: 28.2 µM [inhibitor, single point]"

Compound,"activity change, negative = inhibition",Potency
O=C(NNc1c([N+](=O)[O-])cc(C(F)(F)F)cc1[N+](=O)[O-])c1ccco1,,"inconclusive: 11.2 µM [inhibitor, partial curve, poor fit]"
COC(=O)c1cc2c(N)c(C(=O)c3ccc(Cl)cc3)sc2nc1C(OC)OC,,"inconclusive: 3.98 µM [inhibitor, full curve, poor fit]"
Brc1ccc(CN2CCSCC2)cc1,inactive: 0%,
C/C(=N\NC(=O)COc1ccccc1-c1ccccc1)c1ccccn1,,"inconclusive: 3.16 µM [inhibitor, full curve, poor fit]"
COc1ccc(C(=O)NC2CCCCCC2)cc1S(=O)(=O)N1CCCc2ccccc21,,"inconclusive: 4.47 µM [inhibitor, partial curve]"
COc1ccc(-n2ncc3c2CC(C)(C)CC3NC(=O)Cc2nonc2C)cc1 (configuration not stated),,"inconclusive: 14.1 µM [inhibitor, single point]"
O=c1c2ccccc2c(-c2ccccc2)nn1-c1cc(Cl)ccc1[N+](=O)[O-],,"inconclusive: 28.2 µM [inhibitor, single point]"
Cc1ccc(C(C(=O)NC2CCCCC2)N(CCC(C)C)C(=O)CNC(=O)c2ccco2)o1 (configuration not stated),,"inconclusive: 28.2 µM [inhibitor, single point]"
CCC(NC(=O)c1cc(COc2ccc(OC)cc2Cl)on1)c1ccncc1 (configuration not stated),,"inconclusive: 28.2 µM [inhibitor, single point]"
Nc1ccc2nc(-c3ccccc3)c(-c3ccccc3)nc2c1,,"inconclusive: 31.6 µM [inhibitor, single point]"
Cc1ccsc1/C=N/n1cnnc1,inactive: 5.01%,
CC(C)c1csc(CN2CCN(Cc3ccccc3)C(CCO)C2)n1 (configuration not stated),,"inconclusive: 10 µM [inhibitor, partial curve, poor fit]"
O=S(=O)(/N=C(/Nc1ccc(Cl)cc1Cl)c1ccccc1)c1cccs1,,"inconclusive: 20 µM [inhibitor, partial curve, poor fit]"
NC(c1csc(NC(=O)Nc2cccc(Cl)c2)n1)C1CCCCC1 (configuration not stated),,"inconclusive: 28.2 µM [inhibitor, single point]"
C/C(=N\NC(=O)CSCc1ccccc1Cl)c1cc(O)ccc1O,,"inconclusive: 28.2 µM [inhibitor, single point]"
CC(NC(=O)CSc1nc(-c2ccccc2F)nc2cc(=O)[nH]n12)c1nc2ccccc2n1C (configuration not stated),inactive: 2.45%,
C[C@H](O)[C@@H]1CN2CCc3c([nH]c4ccccc34)[C@@H]2C[C@@H]1N(C)C(=O)OCc1ccccc1,,"inconclusive: 31.6 µM [inhibitor, partial curve, poor fit]"
COc1ccc(C(=O)NC(=S)NC2CCCCC2)cc1,,"inconclusive: 28.2 µM [inhibitor, single point]"
COc1ccc(NC(=S)N(CCCN2CCCC2)Cc2cccn2Cc2ccc(Cl)cc2)cc1Cl,,"inconclusive: 4.47 µM [inhibitor, partial curve, poor fit]"
O=C(NC1CCCC1)c1ccc2c(c1)N(Cc1ccc(F)cc1)CCS2,,"inconclusive: 10 µM [inhibitor, partial curve, poor fit]"
